Data published in the RNAGym collection of RNA variant scans (doi:10.1101/gad.245936.114).
This sample is rich in variants without activity.

B1: tRNA (parent)
chain: CUCUCGGUAGCCAAGUUGGUUUAAGGCGCAAGACUUUAAUUUAUCACUACGAAAUCUUGAGAUCGGGCGUUCGACUCGCCCCCGGGAGAUUUUUUCCUCGAGCAA

Variants of: B1
Test: nonsense suppression (GFP-seq) (ratio to wild type); higher = more function; SUP4oc tRNA, yeast GFP reporter sort-seq
In short: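 Raffinose/galactose medium with 80 mg/L adenine was used to grow yeast carrying genome-integrated tRNA variants (~3% random-mutation library), RFP, and a galactose-driven GFP ochre reporter. Cells went into GFP/RFP bins, which were Illumina-sequenced, and variants with ≥100 reads and ≥30 cells were scored. Nonsense suppression (GFPSEQ) is the per-bin median GFP/RFP weighted by estimated cell share and expressed relative to the unmutated parent tRNA.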

Variant | nonsense suppression
U2A C27G C64U C68G A74G | ≤ 0.026
U2A C29U U55C A60C A62G | ≤ 0.026
U2A C64U G86U A89U | ≤ 0.026
U2A C72U | ≤ 0.026
U2A C75A | ≤ 0.026
U2A C77A | ≤ 0.026
U2A C77G G88C | ≤ 0.026
U2A C80A G84A | ≤ 0.026
U2A C80U | 0.0354
U2A G6C A30U | ≤ 0.026
U2A G6C C34A U63C | ≤ 0.026
U2A G6C C81G | ≤ 0.026
U2A G6U A14G G85A | ≤ 0.026
U2A G6U C80U | ≤ 0.026
U2A G7C A30G | ≤ 0.026
U2A G7C U8G | ≤ 0.026
U2A G7C U16G A60U C64G A74C | ≤ 0.026
U2A G10A A33U U63C | ≤ 0.026
U2A G10C U21A U35C | ≤ 0.026
U2A G10U C29U U63C G67C | ≤ 0.026
U2A G15C U17G | ≤ 0.026
U2A G15U | ≤ 0.026
U2A G15U G18C U35G G65C C77U | ≤ 0.026
U2A G15U G19C G32C | ≤ 0.026

Variant | nonsense suppression
U2A G18A | ≤ 0.026
U2A G19U U22G U35A A87U | ≤ 0.026
U2A G26A G67U | ≤ 0.026
U2A G26C A30U G67A C80A | ≤ 0.026
U2A G26U | ≤ 0.026
U2A G28A | ≤ 0.026
U2A G28U G73U | ≤ 0.026
U2A G32A C56G | ≤ 0.026
U2A G32C C72U | ≤ 0.026
U2A G32U | ≤ 0.026
U2A G32U C34U | ≤ 0.026
U2A G59A C80U | ≤ 0.026
U2A G59C G85A | ≤ 0.026
U2A G69C | ≤ 0.026
U2A G69U U71G | ≤ 0.026
U2A G73A | 0.0508
U2A G78U | ≤ 0.026
U2A G84A A89C | ≤ 0.026
U2A G85C | ≤ 0.026
U2A G86U | ≤ 0.026
U2A U4A | 0.0323
U2A U4A C11A U63C U71G | ≤ 0.026
U2A U4C A62C G67U | ≤ 0.026
U2A U4G C72A | ≤ 0.026

Variant | nonsense suppression
U2A U8G C29A | ≤ 0.026
U2A U8G G26A | ≤ 0.026
U2A U8G U16G A60C | ≤ 0.026
U2A U16A | ≤ 0.026
U2A U16A A24G C56A G61A G66C A87G | ≤ 0.026
U2A U16A A24U A30C | ≤ 0.026
U2A U16A G65A U76C | ≤ 0.026
U2A U16G G25C | ≤ 0.026
U2A U16G G25C U55A | ≤ 0.026
U2A U16G G32A C34G U55A | ≤ 0.026
U2A U16G G66U G67U G73A | ≤ 0.026
U2A U20A | ≤ 0.026
U2A U20C | ≤ 0.026
U2A U20C G65C G85A | ≤ 0.026
U2A U20C U21A C79G G88C | ≤ 0.026
U2A U21A G88A | ≤ 0.026
U2A U21G C34G G69A | ≤ 0.026
U2A U22C | ≤ 0.026
U2A U35A U71G G86A | ≤ 0.026
U2A U35C G73C | ≤ 0.026
U2A U35G U55A G73U U76G | ≤ 0.026
U2A U55C U71C G78C | ≤ 0.026
U2A U55G A60U G66A | ≤ 0.026
U2A U57A U63A C72G G73A C82G | ≤ 0.026

Variant | nonsense suppression
U2A U57G | ≤ 0.026
U2A U58A | ≤ 0.026
U2A U58A U76A | ≤ 0.026
U2A U63A | ≤ 0.026
U2A U63C G78A | ≤ 0.026
U2A U63C G84U | ≤ 0.026
U2A U63G G88A | ≤ 0.026
U2A U71C G88A | ≤ 0.026
U2C A9G G84U | ≤ 0.026
U2C A9U | ≤ 0.026
U2C A9U A30G U55C | ≤ 0.026
U2C A14C G19A G26A C27G U58A | ≤ 0.026
U2C A14G G18A U71G G73U G85U A87C | ≤ 0.026
U2C A14G G18U C34G G88A | ≤ 0.026
U2C A14U G28A A74U G88U | ≤ 0.026
U2C A23G A62C G67A | ≤ 0.026
U2C A23G G25A G73C | ≤ 0.026
U2C A23U C83A | ≤ 0.026
U2C A24C A33C C82A A87U | ≤ 0.026
U2C A24G A31C A60C C82A G85C | ≤ 0.026
U2C A30U | ≤ 0.026
U2C A31C | ≤ 0.026
U2C A31G A54G U57G A60C | ≤ 0.026
U2C A31G C72U | ≤ 0.026

Variant | nonsense suppression
U2C A31U G67C G73U | ≤ 0.026
U2C A60U | 0.194
U2C A60U U63A | ≤ 0.026
U2C A62G G67U A89C | ≤ 0.026
U2C A62U | ≤ 0.026
U2C A87U | ≤ 0.026
U2C A89U | ≤ 0.026
U2C C3A C27A U71A G78A | ≤ 0.026
U2C C3A G18A C83G | ≤ 0.026
U2C C3G C27U A54G G59A | ≤ 0.026
U2C C3U | ≤ 0.026
U2C C5G A31G | ≤ 0.026
U2C C5G A62C G69A | ≤ 0.026
U2C C5U A14C C72G | ≤ 0.026
U2C C5U C72A | ≤ 0.026
U2C C11A C56G G66U | ≤ 0.026
U2C C11G C56A | ≤ 0.026
U2C C11G C83U | ≤ 0.026
U2C C12A A30U | ≤ 0.026
U2C C12G | ≤ 0.026
U2C C12G A24C A62U C79A | ≤ 0.026
U2C C12U G15U A31C U76C | ≤ 0.026
U2C C12U U16C G86U | ≤ 0.026
U2C C27G | ≤ 0.026

Variant | nonsense suppression
U2C C27U | ≤ 0.026
U2C C27U A60U U70G | ≤ 0.026
U2C C29A A33U U35A G67A | ≤ 0.026
U2C C29A C56A A60U | ≤ 0.026
U2C C29A U58G G59A | ≤ 0.026
U2C C29U C34G G59C | ≤ 0.026
U2C C34G C56A G66C | ≤ 0.026
U2C C34G C75G | ≤ 0.026
U2C C56A G61A C83G | ≤ 0.026
U2C C56A U71G | ≤ 0.026
U2C C56U | ≤ 0.026
U2C C64A | ≤ 0.026
U2C C64G G73U | ≤ 0.026
U2C C68A C72G | ≤ 0.026
U2C C75U | 0.206
U2C C77A A89U | ≤ 0.026
U2C C79G | ≤ 0.026
U2C C80A | ≤ 0.026
U2C C81G | ≤ 0.026
U2C C82G | ≤ 0.026
U2C C82U G84A | ≤ 0.026
U2C G6A A30C C34A | ≤ 0.026
U2C G6A C56U | ≤ 0.026
U2C G6C C11U C27A A33U | ≤ 0.026

Variant | nonsense suppression
U2C G6U C34A A60U | ≤ 0.026
U2C G6U G19C G84C G85A A89G | ≤ 0.026
U2C G7A U20G | ≤ 0.026
U2C G7C A30U G32C A33G | ≤ 0.026
U2C G7C G19U U71G C80A A87G | ≤ 0.026
U2C G7C U20G G61C | ≤ 0.026
U2C G7U C77G | ≤ 0.026
U2C G10A A24G A30U C34A | ≤ 0.026
U2C G10U G19U U22G A31U G67C | ≤ 0.026
U2C G15A G25C G32A | ≤ 0.026
U2C G15A U17G | ≤ 0.026
U2C G15A U21C A74U | ≤ 0.026
U2C G15C G28U A87G A89C | ≤ 0.026
U2C G18U G32U G65U U71C | ≤ 0.026
U2C G18U G59C A60U C72A G84C G85U | ≤ 0.026
U2C G19A C75G C77A | ≤ 0.026
U2C G19C | ≤ 0.026
U2C G19C C82A | ≤ 0.026
U2C G25A A30C G59U | ≤ 0.026
U2C G25U G61C G67C C80A | ≤ 0.026
U2C G26A A89U | ≤ 0.026
U2C G26A G67U | ≤ 0.026
U2C G26C | ≤ 0.026
